Molecular target: T1, ERα36 (Homo sapiens, UniProt P03372)
T1 construct: made in house; host or cells: chemical synthesis (no expression host)
T1 sequence (P03372 284-310 isoform P03372-4 limits assumed): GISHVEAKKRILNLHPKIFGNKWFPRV
Assay: ELISA of re-natured ScFv binding to ERα36
Protocol: Streptavidin-coated 96-well plates were washed twice with PBS. Biotinylated ERα36 (final concentration of 20 μg/ml) was added into each testing well. The plates were incubated for 2 h at room temperature and washed three times with PBST. Re-natured ScFv samples (100 μl, S14A1r1, S24A2r2, S33A2r1, S41A3r3, S53A1r1, S66A1r1 and S72A2r1) were added into the testing wells respectively. Each ScFv was diluted five times in five gradients, and two parallel wells were loaded with each ScFv at each gradient. The plates were incubated at 37° C. for 1 h. The plates were washed three times with PBST, followed by addition of 100 μl anti-His-6 mouse monoclonal antibody (1:2000 dilution) per well and 1 h incubation at 37° C. The plates were washed three times with PBST, followed by addition of 100 μl goat anti-mouse-HRP (1:2500 dilution) per well and 1 h incubation at 37° C. The plates were washed six times with PBST, followed by addition of 100 μl OPD to develop under the protection from light. The reactions were terminated by adding 50 μl 2M H2SO4 to each well, and data were collected by microplate reader at 490 nm.
One positive control and three negative controls were performed in parallel. The positive control used rabbit anti-ER multi-clonal antibody serum in replacement of the ScFv re-natured sample and goat-anti-rabbit-HRP in replacement of goat-anti-mouse HRP.

[1] = ScFv concentration 232.00 μg/ml

- OD490 Well1 (ScFv concentration 0.36 μg/ml): 0.124
- OD490 Well2 (ScFv concentration 0.36 μg/ml): 0.128
- OD490 Well1 (ScFv concentration 1.80 μg/ml): 0.148
- OD490 Well2 (ScFv concentration 1.80 μg/ml): 0.137
- OD490 Well1 (ScFv concentration 9.20 μg/ml): 0.168
- OD490 Well2 (ScFv concentration 9.20 μg/ml): 0.169
- OD490 Well1 (ScFv concentration 46.00 μg/ml): 0.676
- OD490 Well2 (ScFv concentration 46.00 μg/ml): 0.687
- OD490 Well1 [1]: 0.743
- OD490 Well2 [1]: 0.725
B1: ScFv5: fully human anti-ERα36 single chain antibody, SEQ ID NO: 11 (protein)
scFv: QSALTQPPSASGTPGQRVTVS[letters of about 80 residues omitted]VFGGGTKLTVLGSGGSTITSYNVYYTKLSSSGTQVQLVQSGAEVKKPGESLKISCKGSGYSFTSYWIGWVRQMPGKGLEWMGIIYPGDSDTRYSPSFQGQVTISADKSISTAYLQWSSLKASDTAMYYCASGIYDAFDIWGQGTMVTVSSAS
modifications: scFv5

— patent US20110311517A1, “Antibodies and methods for treating estrogen receptor-associated diseases” (SHENOGEN PHARMA GROUP, LTD., priority 2009, published 2011)
